Laboratory results reported in the supplement of paper PMC9588766.
Counter-ions that a name gives are not always drawn. ± gives the standard deviation of the averaged measurements. Over roughly 2,000 compounds, “cell viability relative to DMSO control (compound alone)” has its median near 0.98; the lowest 2% begin near 0.23. This is one part of the list.

Test system: PDC-DUC18828
Assay: cell viability relative to DMSO control (compound alone) (fraction); PDC-DUC18828 is a patient-derived cholangiocarcinoma cell line; higher = less growth inhibition
Details: 1 µM; 72 h
Method: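 Selleck Bioactive library screen in the patient-derived FGFR2-G3BP2 fusion-positive ICC cell line PDC-DUC18828 (500 cells/well). Each compound was tested at 1 uM alone, in triplicate, for 72 h. Viability was read by CellTiter-Glo and normalised to plate DMSO controls.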

Row | SMILES | cell viability
1 | C=CC1=C(C(=O)O)N2C(=O)[C@@H](NC(=O)/C(=N\O)c3csc(N)n3)[C@H]2SC1 [Cefdinir] | 1.08 ± 0.071
2 | OCc1ccccc1O[C@@H]1O[C@H](CO)[C@@H](O)[C@H](O)[C@H]1O [Salicin] | 0.971 ± 0.011
3 | C=C1CC[C@@H]2[C@](C)(CO)[C@H](O)CC[C@@]2(C)[C@@H]1C/C=C1/C(=O)OC[C@H]1O [Andrographolide] | 1 ± 0.024
4 | CC(=O)NS(=O)(=O)c1ccc(N)cc1 [Sulfacetamide Sodium] | 0.994 ± 0.034
5 | Cc1cn([C@H]2C=C[C@@H](CO)O2)c(=O)[nH]c1=O [Stavudine (d4T)] | 0.969 ± 0.021
6 | CC/C(=C(\c1ccc(O)cc1)c1ccc(OCCNC)cc1)c1ccccc1 [Endoxifen HCl] | 1.01 ± 0.035
7 | Cc1ccc(S(=O)(=O)Cc2nc(-c3ccc(C(=O)NCc4cccnc4)cc3)oc2C)cc1 | 0.366 ± 0.0015
8 | COc1cccc2c1C(=O)c1c(O)c3c(c(O)c1C2=O)C[C@@](O)(C(C)=O)C[C@@H]3O[C@H]1C[C@H](N)[C@H](O)[C@H](C)O1 [Daunorubicin HCl] | 0.0913 ± 0.011
9 | CNC(=O)c1ccccc1Nc1cc(Nc2ccc(N3CCOCC3)cc2OC)ncc1C(F)(F)F | 0.749 ± 0.023
10 | CNC(=O)c1cc(Oc2ccc(NC(=O)Nc3ccc(Cl)c(C(F)(F)F)c3)cc2)ccn1 [Sorafenib] | 1.05 ± 0.043
11 | CNC(=O)c1cc(Oc2ccc(NC(=O)Nc3ccc(Cl)c(C(F)(F)F)c3)cc2)ccn1 [Sorafenib Tosylate] | 1.03 ± 0.028
12 | CN(c1ccccc1CNc1nc(Nc2ccc3c(c2)CC(=O)N3)ncc1C(F)(F)F)S(C)(=O)=O | 0.79 ± 0.028
13 | CCN(CC)CC(=O)Nc1c(C)cccc1C [Lidocaine] | 1.01 ± 0.012
14 | CC(=O)c1cc2c(o1)C(=O)c1ccccc1C2=O [Napabucasin] | 0.0105 ± 0.00081
15 | CC(C=CC(=O)NO)=CC(C)C(=O)c1ccc(N(C)C)cc1 (stereo not given) [Trichostatin A (TSA)] | 0.15 ± 0.018
16 | c1ccc2c(CC3=NCCN3)cccc2c1 [Naphazoline HCl] | 1.02 ± 0.026
17 | CC(=O)OCC(=O)[C@@]12OC(C)(C)O[C@@H]1C[C@H]1[C@@H]3C[C@H](F)C4=CC(=O)C=C[C@]4(C)[C@@]3(F)[C@@H](O)C[C@@]12C [Fluocinonide] | 0.958 ± 0.054
18 | COc1nc(OCc2cccc(-c3ccccc3)c2C)ccc1CNCCNC(C)=O [PD-1/PD-L1 inhibitor 2] | 0.968 ± 0.021
19 | CCC(C)(Oc1ccc(C2(c3ccc(OC(C)(CC)C(=O)O)cc3)CCCCC2)cc1)C(=O)O (stereo not given) [Clinofibrate] | 1.05 ± 0.032
20 | C[C@@H](O[C@H]1OCCN(Cc2nn(P(=O)(O)O)c(=O)[nH]2)[C@H]1c1ccc(F)cc1)c1cc(C(F)(F)F)cc(C(F)(F)F)c1 [Fosaprepitant dimeglumine salt] | 0.94 ± 0.03
21 | CNc1cc(-c2cccc(Cl)c2Cl)nc(N)n1 | 0.817 ± 0.067
22 | c1nc2c(NC3CCCCC3)nc(Nc3ccc(N4CCOCC4)cc3)nc2[nH]1 [Reversine] | 0.719 ± 0.042
23 | COc1cc2nccc(Oc3ccc(NC(=O)NC4CC4)c(Cl)c3)c2cc1C(N)=O [Lenvatinib (E7080)] | 0.844 ± 0.025
24 | CC(C)(CO)c1cc2cc(NC(=O)C3(c4ccc5c(c4)OC(F)(F)O5)CC3)c(F)cc2n1C[C@@H](O)CO | 0.986 ± 0.054
25 | Cc1c(CN2CCN(C(=O)[C@H](C)O)CC2)sc2c(N3CCOCC3)nc(-c3cnc(N)nc3)nc12 | 0.616 ± 0.053

Row | SMILES | cell viability
26 | CN1CCc2c(c3ccccc3n2Cc2ccc(C(=O)NO)cc2)C1 [Tubastatin A] | 0.954 ± 0.032
27 | CN1CCc2c(c3ccccc3n2Cc2ccc(C(=O)NO)cc2)C1 [Tubastatin A HCl] | 1.03 ± 0.079
28 | CC[C@@H]1C(=O)OC[C@@H]1Cc1cncn1C [Pilocarpine HCl] | 0.988 ± 0.026
29 | CS(=O)(=O)OCCCCOS(C)(=O)=O [Busulfan] | 1.02 ± 0.054
30 | O=C(/C=C/c1ccc(O)cc1)c1ccc(O)cc1O [Isoliquiritigenin] | 0.922 ± 0.031
31 | N#Cc1ccc(-c2csc(NN=C3CCCC3)n2)cc1 [Remodelin] | 0.973 ± 0.083
32 | N#CCNC(=O)c1ccc(-c2ccnc(Nc3ccc(N4CCOCC4)cc3)n2)cc1 | 0.906 ± 0.048
33 | OCc1c[nH]c2ccccc12 [Indole-3-carbinol] | 0.874 ± 0.059
34 | Cc1ncc(-c2ccnc(Nc3ccc(S(C)(=O)=O)cc3)n2)n1C(C)C | 0.88 ± 0.032
35 | Cc1ccc(=O)n(-c2ccccc2)c1 [Pirfenidone] | 1.01 ± 0.033
36 | COc1ccc(C2CC(=O)c3c(O)cc(OC4OC(COC5OC(C)C(O)C(O)C5O)C(O)C(O)C4O)cc3O2)cc1OC (stereo not given) [Methyl-Hesperidin] | 0.962 ± 0.071
37 | CN(C)C(=O)[C@H](O)[C@H](Cc1ccccc1)NC(=O)c1cc2cc(Cl)ccc2[nH]1 | 0.927 ± 0.066
38 | O=C(Oc1cc(S(=O)(=O)c2ccccc2)ccc1[N+](=O)[O-])c1ccc(Cl)cc1 | 0.984 ± 0.087
39 | Cc1cc(CN2CCN(c3c(Br)cnc4nc(-c5ccc(N6CCN(C)CC6)cc5)[nH]c34)CC2)no1 | 0.805 ± 0.054
40 | CCN1CCN(Cc2ccc(C(=O)Nc3ccc(C)c(Oc4ccc5c(c4)CC(=O)N5)c3)cc2C(F)(F)F)CC1 | 0.989 ± 0.056
41 | N[C@@H](Cc1cc(I)c(Oc2ccc(O)c(I)c2)c(I)c1)C(=O)O [Liothyronine Sodium] | 0.92 ± 0.053
42 | COCCCN1CCC(NC(=O)c2cc(Cl)c(N)c3c2OCC3)CC1 [Prucalopride] | 0.942 ± 0.069
43 | COCCCN1CCC(NC(=O)c2cc(Cl)c(N)c3c2OCC3)CC1 [Prucalopride Succinat] | 0.935 ± 0.029
44 | CNc1nc(Nc2cn(C(C)(C)C#N)nc2C)ncc1C(F)(F)F | 1.02 ± 0.032
45 | C=CC(=O)N1C/C(=C\c2ccc([N+](=O)[O-])cc2)C(=O)/C(=C/c2ccc([N+](=O)[O-])cc2)C1 | 0.244 ± 0.014
46 | COC(=O)C1=C(C#N)NC(C)=C(C(=O)OC(C)C)C1c1cccc([N+](=O)[O-])c1 (stereo not given) [Nilvadipine] | 1.01 ± 0.058
47 | C[C@H](CCC(=O)O)[C@H]1CC[C@H]2[C@@H]3[C@@H](O)C[C@@H]4C[C@H](O)CC[C@]4(C)[C@H]3CC[C@]12C [Ursodiol] | 0.956 ± 0.0099
48 | O=C(CCCN1CCN(c2ccccn2)CC1)c1ccc(F)cc1 [Azaperone] | 0.921 ± 0.052
49 | O=C(Nc1ccncc1)c1cc([N+](=O)[O-])ccc1Cl | 0.904 ± 0.025
50 | C[C@]12CC[C@@H]3c4ccc(OC(=O)c5ccccc5)cc4CC[C@H]3[C@@H]1CC[C@@H]2O [Estradiol Benzoate] | 1.01 ± 0.021
